Results as given in the supplement of paper PMC8728848.
The other results are listed elsewhere or left out.

Key:
Assay in all cases: glycan array binding signal (z-score within array); higher = stronger binding
Conditions in all cases: glycan notation: IUPAC condensed, linker removed
[1] = biological target: Fuc(a1-3)[Gal(b1-4)]GlcNAc
Outline: (§1)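 The binding signal is a Z-score computed within each array. Data were drawn from 3228 arrays in the Consortium for Functional Glycomics database, restricted to those with a known protein sequence. Scores were averaged over arrays of the same protein sequence at different concentrations or buffers, and over linkers, and negative values can be taken as non-binding.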

[2] = biological target: Fuc(a1-3)[Gal(b1-4)]GlcNAc(b1-4)Gal(b1-4)[Fuc(a1-3)]GlcNAc
Outline: as §1

[3] = biological target: Fuc(a1-3)[Gal(b1-4)]GlcNAc(b1-4)Gal(b1-4)[Fuc(a1-3)]GlcNAc(b1-4)Gal(b1-4)[Fuc(a1-3)]GlcNAc
Outline: as §1

[4] = biological target: Fuc(a1-3)[Gal3S(b1-4)]GlcNAc
Outline: as §1

[5] = biological target: Fuc(a1-3)[GalNAc(b1-4)]GlcNAc
Outline: as §1

Fuc(a1-4)GlcNAc = biological target: Fuc(a1-4)GlcNAc
Outline: as §1

Fuc(b1-3)GlcNAc = biological target: Fuc(b1-3)GlcNAc
Outline: as §1

Gal(a1-2)Gal = biological target: Gal(a1-2)Gal
Outline: as §1

Gal(a1-3)Gal = biological target: Gal(a1-3)Gal
Outline: as §1

Gal(a1-3)Gal(b1-3)GlcNAc = biological target: Gal(a1-3)Gal(b1-3)GlcNAc
Outline: as §1

Gal(a1-3)Gal(b1-4)Glc = biological target: Gal(a1-3)Gal(b1-4)Glc
Outline: as §1

Gal(a1-3)Gal(b1-4)GlcNAc = biological target: Gal(a1-3)Gal(b1-4)GlcNAc
Outline: as §1

[6] = biological target: Gal(a1-3)Gal(b1-4)[Fuc(a1-3)]GlcNAc
Outline: as §1

Gal(a1-3)GalNAc = biological target: Gal(a1-3)GalNAc
Outline: as §1

[7] = biological target: Gal(a1-3)[Gal(a1-4)]Gal(b1-4)GlcNAc
Outline: as §1

Gal(a1-4)Gal(b1-4)Glc = biological target: Gal(a1-4)Gal(b1-4)Glc
Outline: as §1

Gal(a1-4)Gal(b1-4)GlcNAc = biological target: Gal(a1-4)Gal(b1-4)GlcNAc
Outline: as §1

Gal(a1-4)GlcNAc = biological target: Gal(a1-4)GlcNAc
Outline: as §1

Gal(a1-6)Glc = biological target: Gal(a1-6)Glc
Outline: as §1

Gal(b1-2)Gal = biological target: Gal(b1-2)Gal
Outline: as §1

Gal(b1-3)Gal = biological target: Gal(b1-3)Gal
Outline: as §1

Gal(b1-3)GalNAc = biological target: Gal(b1-3)GalNAc
Outline: as §1

[8] = biological target: Gal(b1-3)GalNAc(b1-3)Gal(a1-4)Gal(b1-4)Glc
Outline: as §1

[9] = biological target: Gal(b1-3)GalNAc(b1-4)Gal(b1-4)Glc
Outline: as §1

[10] = biological target: Gal(b1-3)GalNAc(b1-4)[Neu5Ac(a2-3)]Gal(b1-4)Glc
Outline: as §1

Gal(b1-3)GlcNAc = biological target: Gal(b1-3)GlcNAc
Outline: as §1

[11] = biological target: Gal(b1-3)GlcNAc(b1-3)Gal(b1-4)Glc
Outline: as §1

[12] = biological target: Gal(b1-3)GlcNAc(b1-3)Gal(b1-4)GlcNAc
Outline: as §1

[13] = biological target: Gal(b1-3)[Fuc(a1-4)]GlcNAc
Outline: as §1

[14] = biological target: Gal(b1-3)[Fuc(a1-4)]GlcNAc(b1-3)Gal(b1-4)GlcNAc
Outline: as §1

[15] = biological target: Gal(b1-3)[Fuc(a1-4)]GlcNAc(b1-3)Gal(b1-4)[Fuc(a1-3)]GlcNAc
Outline: as §1

[16] = biological target: Gal(b1-3)[GlcNAc(b1-6)]GalNAc
Outline: as §1

[17] = biological target: Gal(b1-3)[Neu5Ac(a2-6)]GalNAc
Outline: as §1

[18] = biological target: Gal(b1-3)[Neu5Ac(a2-6)]GlcNAc(b1-6)Gal(b1-4)Glc
Outline: as §1

[19] = biological target: Gal(b1-3)[Neu5Ac(b2-6)]GalNAc
Outline: as §1

[20] = biological target: Gal(b1-4)GalNAc(a1-3)[Fuc(a1-2)]Gal(b1-4)GlcNAc
Outline: as §1

[21] = biological target: Gal(b1-4)GalNAc(b1-3)[Fuc(a1-2)]Gal(b1-4)GlcNAc
Outline: as §1

B1: FaeGab (Escherichia coli) (protein)
chain: WMTGDFNGSVDIGGSITADDYRQKWEWKVGTGLNGFGNVLNDLTNGGTKLTITVTGNKPILLGRTKEAFATPVSGGVDGIPQIAFTDYEGASVKLRNTDGETNKGLAYFVLPMKNAEGTKVGSVKVNASYAGVFGKGGVTSADGELFSLFADGLRAIFYGGLTTTVSGAALTSGSAAAARTELFGSLSRNDILGQIQRVNANITSLVDVAGSYREDMEYTDGTVVSAAYALGIANGQTIEATFNQAVTTSTQWSAPLNVAITYY
glycan array binding signal (z-score) [1]: -0.229 | glycan array binding signal (z-score) [2]: -0.089 | glycan array binding signal (z-score) [3]: -0.422 | glycan array binding signal (z-score) [4]: -0.159 | glycan array binding signal (z-score) [5]: -0.281 | glycan array binding signal (z-score) (Fuc(a1-4)GlcNAc): -0.32 | glycan array binding signal (z-score) (Fuc(b1-3)GlcNAc): -0.112 | glycan array binding signal (z-score) (Gal(a1-2)Gal): 0.217 | glycan array binding signal (z-score) (Gal(a1-3)Gal): 0.089 | glycan array binding signal (z-score) (Gal(a1-3)Gal(b1-3)GlcNAc): -0.364 | glycan array binding signal (z-score) (Gal(a1-3)Gal(b1-4)Glc): -0.281 | glycan array binding signal (z-score) (Gal(a1-3)Gal(b1-4)GlcNAc): -0.522 | glycan array binding signal (z-score) [6]: -0.358 | glycan array binding signal (z-score) (Gal(a1-3)GalNAc): -0.083 | glycan array binding signal (z-score) [7]: -0.397 | glycan array binding signal (z-score) (Gal(a1-4)Gal(b1-4)Glc): -0.353 | glycan array binding signal (z-score) (Gal(a1-4)Gal(b1-4)GlcNAc): -0.265 | glycan array binding signal (z-score) (Gal(a1-4)GlcNAc): -0.064 | glycan array binding signal (z-score) (Gal(a1-6)Glc): 0.572 | glycan array binding signal (z-score) (Gal(b1-2)Gal): 0.149 | glycan array binding signal (z-score) (Gal(b1-3)Gal): 0.407 | glycan array binding signal (z-score) (Gal(b1-3)GalNAc): 0.385 | glycan array binding signal (z-score) [8]: -0.015 | glycan array binding signal (z-score) [9]: 0.153 | glycan array binding signal (z-score) [10]: -0.125 | glycan array binding signal (z-score) (Gal(b1-3)GlcNAc): -0.27 | glycan array binding signal (z-score) [11]: 0.776 | glycan array binding signal (z-score) [12]: -0.347 | glycan array binding signal (z-score) [13]: -0.192 | glycan array binding signal (z-score) [14]: -0.388 | glycan array binding signal (z-score) [15]: 1.01 | glycan array binding signal (z-score) [16]: 0.42 | glycan array binding signal (z-score) [17]: 0.197 | glycan array binding signal (z-score) [18]: -0.23 | glycan array binding signal (z-score) [19]: 0.151 | glycan array binding signal (z-score) [20]: -0.256 | glycan array binding signal (z-score) [21]: -0.348
